Residues, ends and D or L forms follow the SMILES beside them.
Settings: 0.9% NaCl, all concentrations (100 μM to 10,000 μM)
Experimental: The excipients shown below in Table 14 were used to prepare formulations containing aCT1 peptide at concentrations ranging from 100 μM to 10,000 μM, and the solubility and potential for effective delivery to the eye were tested. Specifically, formulations containing NaCl, polymer hydroxypropyl methylcellulose (HPMC), Pluronic® F-127 (PF-127), hydroxyethylcellulose (HEC), and carboxymethylcellulose (CMC) were compared.

## CC[C@H](C)[C@H](NC(=O)[C@H](CCC(=O)O)NC(=O)[C@H](CC(C)C)NC(=O)[C@H](CC(=O)O)NC(=O)[C@H](CC(=O)O)NC(=O)[C@@H]1CCCN1C(=O)[C@H](CCCNC(=N)N)NC(=O)[C@@H]1CCCN1C(=O)[C@H](CCCNC(=N)N)NC(=O)[C@H](CCCCN)NC(=O)[C@H](CCCCN)NC(=O)[C@H](Cc1c[nH]c2ccccc12)NC(=O)[C@@H]1CCCN1C(=O)[C@H](CCCCN)NC(=O)[C@H](CCCNC(=N)N)NC(=O)[C@H](CCCNC(=N)N)NC(=O)[C@H](CC(N)=O)NC(=O)[C@@H]1CCCN1C(=O)[C@H](Cc1ccccc1)NC(=O)[C@H](Cc1c[nH]c2ccccc12)NC(=O)[C@@H](NC(=O)[C@H](CCCCN)NC(=O)[C@@H]1CCCN1C(=O)[C@H](CCC(N)=O)NC(=O)[C@H](CCCNC(=N)N)NC(=O)CCCCCNC(=O)CCCC[C@@H]1SC[C@@H]2NC(=O)N[C@@H]21)[C@@H](C)CC)C(=O)O [aCT1, RQPKIWFPNRRKPWKK RPRPDDLEI] (HELM PEPTIDE1{[O=C1N[C@H]2[C@H](CS[C@H]2CCCCC(=O)[*:2])N1].[O=C(CCCCCN[*:1])[*:2]].R.Q.P.K.I.W.F.P.N.R.R.K.P.W.K.K.R.P.R.P.D.D.L.E.I}$$$$V2.0; N-terminus and C-terminus assumed)
  Solubility in saline: soluble in saline at all concentrations

Source: patent publication US12138293B2 (priority 2020, dated 2024)
